88 sequences from the supplement of paper PMC11417369 can be followed below.

The list shows a part of the results.

This experiment deals with PF3D7_0420300 AP2 domain 1 (GST-tagged). The experiment can be described thus: gcPBM binding intensity (ln(normalized median fluorescence intensity)); higher = stronger DNA binding. In short, it runs like this: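 Binding intensity is defined as the maximum Masliner-normalised natural-log median intensity across replicate spots for either probe orientation. It was measured on an Agilent 4 × 180k array of primer-extended double-stranded 36-bp intergenic genomic probes and negative controls, to which GST-tagged P. falciparum DNA-binding domains made in E. coli were applied for 1 h in 1× PBS with 1% milk, 0.2 mg/ml BSA, 0.5% salmon testes DNA and 0.03% Triton X-100. Detection was by Alexa488 anti-GST antibody and scanning at 488 nm.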
For “ATGTATGTTTGTTATGCACACAAATGCATCTTATTT [CACACA_site8861]”, the “gcPBM binding intensity (ln)” value worked out at 9.62.
The same measure for “ATTATGTATACATAAACACACATATATATAAAAAAA [CACACA_site262]”: 9.51; for “TTTGTTCTTTTAATGTGTACATATACACTTGTAATA [XGTACX_site2635]”: 9.23.
The value for “ATGTATGCAAAAATGGTGCATATTAAATGTATAACA [GTGCAC_site9722]” was 9.34; that for “AAAAAAAAAAGAAACACACACATTTGTCTATAATAT [CACACA_site7063]” was 9.83.
Regarding “TGACCTTATGTGTTTTGAAGGGGAAAGGAAATGCGC [XGTACX_negctrl_site411]”, the “gcPBM binding intensity (ln)” value came to 9.07.
The same measure for “TATAAAAATAGGATTTGTACATATAAAAAAGGAAAA [XGTACX_site8678]”: 9.3; for “TATAAATATATGTATGCACACATTTTTTTTGGAAAA [CACACA_site1070]”: 9.17; for “CAGAAATAGAGATACACACACACATATATTTATGTA [CACACA_site3968]”: 10.2.
The value for “TAATATAAAAAAGGTACTACACGAAGGAATAAAAAT [XGTACX_site6872]” was 9.87; that for “ATAAAGAAATAAAGTTGTACATTATATATATATATA [XGTACX_site7729]” was 9.25.
With “TGTTTAAAAATAATTTGTACATATATTTTATTTCAT [XGTACX_site1272]”, the “gcPBM binding intensity (ln)” value came to 9.13.
The same measure for “AATAATTTTTTAAACACACACACATATATATATATA [CACACA_site95]”: 9.74.
The value for “AATACATACGGACACACACACACATATATATATATA [CACACA_site5884]” was 10.2; that for “TCTTTTGTTTAACCTACATGCAGAATATAAGTCTTC [TGCATGCA_site99]” was 9.12.
The same measure for “ATTCATTATTCACCTTGTACACAAATGATTATCGTA [XGTACX_site455]”: 9.35; for “TTAACAAAATTTTTAACACACAAAAAAAAAAAAAAA [CACACA_site1828]”: 8.97.
Consider “ATGTAGACAACATATGAACACACAAAATATTTTTTT [CACACA_site8955]”, for which the “gcPBM binding intensity (ln)” value came to 9.62.
The value for “CCAAAATTTATAAATTGTACATATTTTTAAATTCTT [XGTACX_site833]” was 9.03.
The value for “ATAAAAGAATTAAATAATCAAAATGATTATTTTATA [CACACA_negctrl_site466]” was 8.8; that for “GATAAATAATAATAAGGTACACATAAAATATTCCTT [XGTACX_site2963]” was 9.3; that for “GGTATAATTCATATAACACACATTTCAATGTTAAAA [CACACA_site2172]” was 9.28.
As for “TGTATTAATTTGTAATGTACACATATATGTATTATA [XGTACX_site4152]”, the “gcPBM binding intensity (ln)” value worked out at 9.23.
The value for “TAAGTAAACTTTCTATGTACATATTTTCAAATATTA [XGTACX_site6260]” was 9.11; that for “CTTATATATACATATACACACACACCCATATATATA [CACACA_site8705]” was 10.1; that for “TAACATAAATCCATACGTACCTATATATATATAATA [XGTACX_site2626]” was 9.21.
The same measure for ATTTATATTAAAAGTGTGCACTTTTTTTTTTTTTTT: 9.12; for “TCATTCCATACTTTAACACACAAATATATTTAATCC [CACACA_site145]”: 9.54.
For “TTTTTTTTTTTGTTTTGTACATAAATTGCAACCAAT [XGTACX_site8949]”, the “gcPBM binding intensity (ln)” value amounted to 9.05.
The same measure for “ATATATATATATATATGTACATATTCACTTATATTT [XGTACX_site5324]”: 9.18; for “TATATATATATAATTACACACAATGTTCTATATATA [CACACA_site3235]”: 9.51.
The same measure for “TATTTATTTAATTACACACGAACATATAACCATTTC [CACACA_site211]”: 9.55; for “TTTTCTTTTAAACATATATATATATATATATATATA [XGTACX_negctrl_site559]”: 8.81.
As to “TGTAGACTACATAGTAGTACATAATATATACATATA [XGTACX_site367]”, the “gcPBM binding intensity (ln)” value is 9.1.
“GTTGAAAAAAAAAATGCACACGCATACATATAATAT [CACACA_site8117]”: the “gcPBM binding intensity (ln)” value turned out to be 9.46.
The same measure for “ATTTCTTTGCTTTTCAAACACACAAAAGTTATTATA [CACACA_site520]”: 9.41.
The value for “AAAAAAAAAAAAAAAACACACATATATATTATTGTA [CACACA_site3979]” was 9.26; that for “TTTTTTGTATTTTTCACACACTCTCTATCTCTCTCA [CACACA_site2095]” was 9.54; that for “GAATATTACATGTATTGTACAGGTAATGTTAAAAAT [XGTACX_site8274]” was 9.26.
The value for “AGTAAAAAAAATATCTGTACATATTAATATAAATGT [XGTACX_site6234]” was 9.27; that for “AAATATTATTCTTTTATTTTTAAACATATAATTATA [GTGCAC_negctrl_site136]” was 9.05.
“TTATACACTGATAAAAGTACATTTGTATGTTTTTTT [XGTACX_site8959]”: the “gcPBM binding intensity (ln)” value is 9.24.
On to “ATCTAAAAATTTTACGCACACAAGTAAAAAAAAAAA [CACACA_site2485]”, for which the “gcPBM binding intensity (ln)” value was 9.36.
The value for “TTTTATAATCATAATAGTACTTTTTCTTTTTCACAT [XGTACX_site5017]” was 9.17; that for “TAATCATAAAAAAATACACACATATAAAATATAGAT [CACACA_site7020]” was 9.67.
The value for “AAAAGTTAAGCAACAAATTTTATTTCTTATATATAA [TGCATGCA_negctrl_site134]” was 8.91; that for “ATATTTATAAATTGCACACAAATAATAACATTATAT [CACACA_site5322]” was 9.39.
The value for “AAAATTCTTATAAGATGTACAATTTGTAACACTATA [XGTACX_site510]” was 9.14; that for “TTTTGTATATATTATTGTACTTTTAATATAGATCGT [XGTACX_site5830]” was 9.22; that for “AAATAAATATATAATACACACAAAAATATAAAATGT [CACACA_site3711]” was 10.1.
In the case of “TCACATACATTACTTACACACCATATTAAGATATAC [CACACA_site4415]”, the “gcPBM binding intensity (ln)” value was 9.54.
Take “TTTTTTACAACACGAAAATGAACAATTATAATAAAT [TGCATGCA_negctrl_site301]”: the “gcPBM binding intensity (ln)” value was 9.31.
The value for “TTATACTCACGTTACACACACACAATATATATATAT [CACACA_site4137]” was 10.1; that for “ATAATATATATATGTAGTACGTATATAATTTTAATA [XGTACX_site5228]” was 9.27.
The same measure for “ATATTTATGACCGTACGTACCTAACAATACAATCAA [XGTACX_site4511]”: 9.22; for “TGAATTTCAAAACAGTGTACATTAATATATATATAA [XGTACX_site7951]”: 9.06; for “AAAAATAAAAAAAACACACATACCTTATTTTTGTTC [CACACA_site2634]”: 9.75.
The value for “AATTAAAATTTTTTTTTTTTTTTTTTTTTTCTATTA [CACACA_negctrl_site1585]” was 9.
Regarding “TATATATAGAAACACACACACAAAAAAAAAAAAAAA [CACACA_site1506]”, the “gcPBM binding intensity (ln)” value was 9.59.
With “TATATATCCTTCTATGCATGCATATGGATAGATTTC [TGCATGCA_site58]”, the “gcPBM binding intensity (ln)” value was 8.97.
The value for “ATTTAAAAAACTTTTAGCAAAAAAAAAAAATAATAA [TGCATGCA_negctrl_site191]” was 9.03.
The same measure for “AAATTGATATTATATATATATATATATATATATATA [GTGCAC_negctrl_site482]”: 8.89; for “ATATATATATACATACGTACACACAAATATTAAAAT [XGTACX_site4007]”: 9.67; for TCCTATATCACAAATGTGCACAGAAAAAAAAAATAT: 9.31.
The same measure for “TGTATACATAATATTTGTACATATTGTTATATATAT [XGTACX_site740]”: 9.35.
In the case of “AATATATATAATAATTGTACAATACGTATGTTATAT [XGTACX_site8745]”, the “gcPBM binding intensity (ln)” value came to 9.43.
The same measure for “TTATAAAAAAAAAAAAAAAAGAAAATGAATTCACGA [CACACA_negctrl_site1248]”: 9.18; for “TTCGACGAGAGCAAGTGTACTCTTGAATAATTTATA [XGTACX_site7613]”: 8.91; for “ATTTTATTTTTTGAGTGTACTAGTTCAACAACTCCG [XGTACX_site8600]”: 9.19.
The same measure for “TGTTATATATTATATACATGCACAAAAGCAACACAA [TGCATGCA_site1009]”: 9.31; for “AACTTTTTTATATGCACACATAAACAAGGATATATA [CACACA_site2874]”: 9.35.
The same measure for “AAAAAAAAAAAAAACACACACACACCCATACACATA [CACACA_site2860]”: 10.1; for “CAAAAAATACGATGTTGTACTATGTATTCCTGATGT [XGTACX_site246]”: 9.36; for “TACTTCGATAATAATCGTACATATATATTGTATTTA [XGTACX_site5700]”: 9.34.
As for “TATATATACATAAAAACATGCAATATATACACATTA [TGCATGCA_site444]”, the “gcPBM binding intensity (ln)” value is 9.32.
As to “TTGTTTTGCTAAAAATGTACTCTATATAAAAGCTTT [XGTACX_site4027]”, the “gcPBM binding intensity (ln)” value is 8.98.
On to “TATATATATTATATATGTACACATATGTGAGAATGA [XGTACX_site2992]”, for which the “gcPBM binding intensity (ln)” value stood at 9.31.
The same measure for “ATTTATATGTAGATGTGTACTTAATTGTAATGTGTT [XGTACX_site6422]”: 9.53; for “TATCAAAATAAATGCACACAAATTGCACATATCTAT [CACACA_site1097]”: 9.43; for “CAAAAACATACCTACACACACAATATGTATAAATAA [CACACA_site7617]”: 10.
The value for “TCTAGGAAAAATTATAGTACACAAAAATATATATAT [XGTACX_site4136]” was 9.38; that for “TATGACACTTTGAAGGGTACATGCAGAAAAAAAAAA [XGTACX_site569]” was 9.09.
The value for “TTATATGCACTTTTTGCACACGTATGAATAACAAAA [CACACA_site1811]” was 9.17; that for “ATATATACATATACTATATCTTTTATTTTTATTATT [GTGCAC_negctrl_site127]” was 9.46.
Consider “TATATATATTAAAAACGTACAAAATAAGAATTAATT [XGTACX_site5979]”, for which the “gcPBM binding intensity (ln)” value worked out at 9.51.
The same measure for “TATAAATAAATAAACACACACAAATAAAATAAAAAA [CACACA_site7623]”: 10.1.
The value for “TTTTTTTGCCATATTACACACACACCGGTAAACCCC [CACACA_site8475]” was 10.2; that for “TTTATTTATTTATTCTTATTTTTTTTTTTTTTTACT [CACACA_negctrl_site257]” was 9.22.
